Test results published in PubChem BioAssay (NCATS).
The shares of active, inactive and inconclusive entries below differ from those in the screen. Potencies of inconclusive entries are left out as doubtful fits. Active and inactive are the calls of the source. Calls follow the shape of the dose curve; as a rule, active = well fitted curve in the direction sought with a large enough effect; inconclusive = small, poorly fitted or top-dose-only effect, or another doubt; inactive = no such curve, though single readings can be large; an effect the other way counts as inactive or inconclusive.

How the values were obtained:
[1] = BET inhibitor-based combinations targeting novel dependencies in MECOM-rearranged (r) AML: OCI-AML3 cell line (AID 2202232); conditions: CellTiter-Glo luminescence, 48 h; Potency: OCI-AML3 viability; viability (% of control): at 46 µM (top of the series); also: nearly all actives have a fitted effect of over 35% in size;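 as to viability (% of control): plate controls were DMSO vehicle wells for no effect and wells without cells for full effect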
Method in brief: (§1)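 Here, 11-point titrations of each agent were applied to 500 seeded cells and incubated 48 hr; CellTiter-Glo signal, scaled against DMSO and empty wells, was integrated as AUC, then Z-scored within the individual line.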

[2] = BET inhibitor-based combinations targeting novel dependencies in MECOM-rearranged (r) AML: HNT-34 cell line (AID 2202234); conditions: HNT-34 AML viability, CellTiter-Glo luminescence, 48 h; series mostly up to 46 µM; also: nearly all actives have a fitted effect of over 35% in size;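 as to viability (% of control): plate controls were vehicle wells for no effect and cell-free wells for full effect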
Method in brief: (§2)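 Normalized to DMSO and empty-well controls, the luminescence data from CellTiter-Glo after 48 hr drug exposure were fitted across 11 concentrations. Reported metrics are area under the dose-response curve and its Z-transformed form.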

[3] = BET inhibitor-based combinations targeting novel dependencies in MECOM-rearranged (r) AML: MV-4-11 cell line (AID 2202233); conditions: MV-4-11 AML viability, CellTiter-Glo luminescence, 48 h; viability, % of control: at 46 µM (top of the series) unless noted; also: nearly all actives have a fitted effect of over 45% in size;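 as to viability, % of control: plate controls were DMSO for no effect and blank wells for full effect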
Method in brief: as §2

[4] = BET inhibitor-based combinations targeting novel dependencies in MECOM-rearranged (r) AML: AML-191 cell line (AID 2202236; also: nearly all actives have a fitted effect of over 35% in size;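 as to viability (% of control): plate controls were vehicle wells for no effect and wells without cells for full effect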); conditions: AML-191 viability, CellTiter-Glo luminescence, 48 h; series mostly up to 46 µM
Method in brief: as §1

[5] = BET inhibitor-based combinations targeting novel dependencies in MECOM-rearranged (r) AML: AML-194 cell line (AID 2202237; also: nearly all actives have a fitted effect of over 40% in size;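 as to viability (% of control): plate controls were vehicle wells for no effect and wells without cells for full effect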); conditions: AML-194 (MECOM-r AML) viability, CellTiter-Glo, 48 h; series mostly up to 46 µM
Method in brief: as §1

[6] = BET inhibitor-based combinations targeting novel dependencies in MECOM-rearranged (r) AML: UCSD-AML1 cell line (AID 2202235); conditions: UCSD-AML1 AML cells viability, CellTiter-Glo, 48 h; viability (% of control): at 46 µM (top of the series); also: nearly all actives have a fitted effect of over 40% in size;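 as to viability (% of control): plate controls were DMSO vehicle wells for no effect and blank wells for full effect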
Method in brief: as §2
Potency is read from the fitted curve at half-maximal effect; tags tell the direction and shape of the fitted curve.

CC[C@]12C=CCN3CC[C@@]4(c5cc([C@@]6(C(=O)OC)CC7C[C@@H](C(C)(F)F)CN(Cc8c6[nH]c6ccccc86)C7)c(OC)cc5N(C)[C@H]4[C@@](O)(C(=O)OC)[C@@H]1OC(C)=O)[C@@H]32 (stereo partly drawn)
Potency [1]: active: 0.296 µM
Potency [2]: inconclusive [inhibitor, full curve]

Cc1nnc(NS(=O)(=O)c2ccc(N)cc2)s1
Potency [1]: inconclusive [inhibitor, full curve, poor fit]
Potency [3]: inactive
Potency [4]: inactive
Potency [5]: inactive

CN1CC(=O)N2[C@H](c3ccc4c(c3)OCO4)c3[nH]c4ccccc4c3C[C@@H]2C1=O
Potency [1]: inactive
Potency [2]: inactive

CN1C(C(=O)Nc2ccccn2)=C(O)c2sccc2S1(=O)=O
Potency [1]: inactive
Potency [2]: inactive

C[N+](C)(C)CC(=O)O
Potency [1]: inactive
Potency [3]: inactive
Potency [5]: inactive

Cc1ccc2nc(NC(=O)CSc3nc4c(c(=O)n3-c3ccccc3)SCC4)sc2c1
Potency [1]: inconclusive [inhibitor, full curve, poor fit]
Potency [3]: inactive
Potency [5]: inactive

COC(=O)[C@@H]1CC2=CC(=O)CC[C@]2(C)[C@@]23O[C@@H]2C[C@@]2(C)[C@@H](CC[C@@]24CCC(=O)O4)[C@H]13
Potency [1]: inactive
Potency [3]: inactive
Potency [4]: inactive

CS(=O)(=O)Nc1cc2occ(NC=O)c(=O)c2cc1Oc1ccccc1
Potency [1]: inactive
Potency [2]: inactive

CN(C)C/C=C/C(=O)Nc1ccc(C(=O)Nc2cccc(Nc3ncc(Cl)c(-c4c[nH]c5ccccc45)n3)c2)cc1
Potency [1]: active: 0.0833 µM
Potency [3]: active: 46.8 nM
Potency [5]: active: 0.296 µM

O=C1Cc2cc(C(=O)NC3C[C@H]4CC[C@@H](C3)N4S(=O)(=O)CC3CCN(CCCC(F)(F)F)CC3)c(Cl)cc2N1 (stereo partly drawn)
Potency [1]: inactive
Potency [3]: inconclusive [inhibitor, full curve, poor fit]
Potency [5]: inactive

COc1ccnc2[nH]cc(C(=O)C(=O)N3CCN(C(=O)c4ccccc4)C[C@H]3C)c12
Potency [1]: inactive
Potency [3]: inactive
Potency [4]: inactive
Potency [5]: inactive

CC1(C)CCC(C)(C)c2cc(NC(=O)c3ccc(C(=O)O)cc3)ccc21
Potency [1]: inactive
Potency [3]: inconclusive [inhibitor, full curve]
Potency [5]: inactive

CN(C)C(=O)[C@H](O)[C@H](Cc1ccccc1)NC(=O)c1cc2cc(Cl)ccc2[nH]1
Potency [1]: inconclusive [inhibitor, partial curve, poor fit]
Potency [3]: inconclusive [inhibitor, single point]
Potency [4]: inactive
Potency [5]: inactive

C[C@]12CCC3c4ccc(O)cc4CCC3C1CCC2=O (stereo partly drawn)
Potency [1]: inactive
Potency [3]: inconclusive [inhibitor, partial curve]
Potency [5]: inactive

COc1cc(C(=O)NS(=O)(=O)c2ccccc2C)ccc1Cc1cn(C)c2ccc(NC(=O)OC3CCCC3)cc12
Potency [1]: inactive
Potency [3]: inactive
Potency [4]: inactive
Potency [5]: inactive

CNC(=O)c1ccc(N2C(=S)N(c3cnc(C#N)c(C(F)(F)F)c3)C(=O)C23CCC3)cc1F
Potency [1]: inconclusive [inhibitor, full curve, poor fit]
Potency [3]: inactive
Potency [4]: inactive

NC(=O)c1cccc(-c2cccc(OC(=O)NC3CCCCC3)c2)c1
Potency [1]: inactive
Potency [3]: inconclusive [inhibitor, full curve, poor fit]
Potency [5]: inactive

CN1CCN(CCCNc2ncc(Cl)c(-c3cc4c(C(=O)NC5CC5)cccc4s3)n2)CC1
Potency [1]: inactive
viability, % of control [3]: inconclusive: 34.4% [inhibitor]
Potency [4]: inconclusive [inhibitor, single point]
Potency [5]: inconclusive [inhibitor, single point]

CCOc1cc(N)c(Cl)cc1C(=O)NCC1CN(Cc2ccc(F)cc2)CCO1 (stereo not drawn)
Potency [1]: inconclusive [inhibitor, partial curve, poor fit]
Potency [3]: inconclusive [inhibitor, partial curve, poor fit]
Potency [5]: inactive

Cc1cccc(N(C)C(=S)Oc2ccc3ccccc3c2)c1
Potency [1]: inactive
Potency [3]: inconclusive [inhibitor]
Potency [4]: inconclusive [inhibitor, partial curve, poor fit]

O=C(O)CC(C(=O)O)n1c(O)c(C2=c3cc(Br)ccc3=NC2=O)sc1=S (stereo not drawn)
Potency [1]: inactive
Potency [3]: inconclusive [inhibitor, full curve, poor fit]
Potency [4]: inactive
Potency [5]: inactive

COCCNCc1ccc(-c2cc3nccc(Oc4ccc(NC(=O)C5(C(=O)Nc6ccc(F)cc6)CC5)cc4F)c3s2)nc1
Potency [1]: inconclusive [inhibitor, partial curve, poor fit]
Potency [3]: inconclusive [inhibitor, full curve]
Potency [4]: active: 8.33 µM

C[N+]1(C)[C@@H]2CC(OC(=O)[C@H](CO)c3ccccc3)C[C@H]1[C@@H]1O[C@@H]12 (stereo partly drawn)
Potency [1]: inactive
Potency [3]: inactive
Potency [5]: inactive

COc1cc2c3c(n(CCCn4ccnc4)c(=O)c2cc1OC)-c1cc2c(cc1C3=O)OCO2
Potency [1]: active: 0.0372 µM
Potency [3]: inconclusive [inhibitor, full curve]
Potency [5]: inconclusive [inhibitor, full curve, poor fit]

Nc1nc2c(c(=O)[nH]1)N(C=O)[C@H](CNc1ccc(C(=O)N[C@@H](CCC(=O)O)C(=O)O)cc1)CN2
Potency [1]: inactive
Potency [3]: inactive
Potency [5]: inactive

CC(C)(C)S(=O)(=O)c1ccc2nccc(Nc3n[nH]c4ccc(F)cc34)c2c1
Potency [1]: inconclusive [inhibitor, full curve, poor fit]
Potency [3]: inconclusive [inhibitor, partial curve, poor fit]
Potency [4]: active: 10.5 µM
Potency [5]: inactive

N[C@@H]1CN(c2c(F)cc3c(=O)c(C(=O)O)cn([C@@H]4C[C@@H]4F)c3c2Cl)CC12CC2
Potency [1]: inactive
Potency [3]: inactive
Potency [4]: inactive

COc1ccc(S(=O)(=O)N[C@@H](CNc2nc(C)nc(N3CCC(c4ccc5c(n4)NCCC5)CC3)c2C)C(=O)O)cc1
Potency [1]: inactive
Potency [2]: inactive

CC1(C)Cc2c(-c3ccccc3)c(-c3ccc(Cl)cc3)c(CC(=O)O)n2C1
Potency [1]: inconclusive [inhibitor, full curve, poor fit]
Potency [2]: inconclusive [inhibitor, single point]

COc1ccc2nc3n[nH]c(C)c3c(NCCOCCO)c2c1
Potency [1]: inactive
Potency [3]: inactive
Potency [5]: inactive

CC(C)Oc1ccc2c(=O)c(-c3ccccc3)coc2c1
Potency [1]: inconclusive [inhibitor, partial curve, poor fit]
Potency [3]: inactive
Potency [4]: inconclusive [inhibitor, single point]

CC(=O)O[C@]1(C(C)=O)CC[C@H]2[C@@H]3C=C(C)C4=CC(=O)CC[C@]4(C)[C@H]3CC[C@@]21C
Potency [1]: inconclusive [inhibitor, partial curve]
Potency [3]: inconclusive [inhibitor, partial curve]
Potency [4]: inconclusive [inhibitor, single point]
Potency [5]: inconclusive [inhibitor, single point]

CCS(=O)(=O)N1CCN(c2ccc(Nc3ncc(C(N)=O)c(NC4CC4)n3)cc2)CC1
Potency [1]: active: 13.2 µM
Potency [2]: inconclusive [inhibitor, full curve]

NC(=O)c1cnc(-c2ccc(C3(N)CCC3)cc2)c(-c2ccccc2)c1
Potency [1]: inconclusive [inhibitor, full curve, poor fit]
Potency [2]: inconclusive [inhibitor, partial curve]
Potency [6]: active: 1.32 µM

N[C@H](CSC(c1ccccc1)(c1ccccc1)c1ccccc1)C(=O)O
Potency [1]: inconclusive [inhibitor, partial curve, poor fit]
Potency [2]: inconclusive [inhibitor, partial curve]
Potency [6]: inactive
Potency [4]: inconclusive [inhibitor, single point]

CCN(c1cc(C#CCN2CCOCC2)cc(C(=O)NCc2c(C)cc(C)[nH]c2=O)c1C)C1CCC(N(C)CCOC)CC1 (stereo not drawn)
Potency [1]: inactive
Potency [2]: inactive

Cc1nnc(C(C)C)n1C1CC2CCC(C1)N2CCC(NC(=O)C1CCC(F)(F)CC1)c1ccccc1 (stereo not drawn)
Potency [1]: inactive
Potency [2]: inactive

NC[C@H]1O[C@H](O[C@@H]2[C@@H](O)[C@@H](O[C@H]3O[C@H](CO)[C@@H](O)[C@H](N)[C@@H]3O)[C@H](N)C[C@@H]2N)[C@H](O)[C@@H](O)[C@H]1O
Potency [1]: inactive
Potency [2]: inactive
Potency [6]: inactive

O=C(O)[C@@H](c1ccc(OCc2ccc3ccccc3n2)cc1)C1CCCC1
Potency [1]: inactive
Potency [2]: inconclusive [inhibitor, partial curve, poor fit]

O=C(O)C1CCCN(CCC=C(c2ccccc2)c2ccccc2)C1 (stereo not drawn)
Potency [1]: inactive
Potency [2]: inactive
Potency [6]: inactive
Potency [4]: inactive

CCOc1cc(/C=C2/C(=O)N(c3ccccc3)N=C2C)cc(Cl)c1OCC(=O)OC
Potency [1]: inconclusive [inhibitor, partial curve, poor fit]
Potency [2]: inactive
Potency [6]: inactive
Potency [4]: inactive

COc1ccc(-n2c(SCCCN3C(=O)c4cccc5cccc(c45)C3=O)nnc2-c2ccncc2)cc1
Potency [1]: inactive
Potency [2]: inactive
Potency [6]: inactive

O=c1oc2cc(O)ccc2s1
Potency [1]: inconclusive [inhibitor, partial curve, poor fit]
Potency [2]: inactive
Potency [6]: inactive

CCOC(=O)O[C@]1(C(=O)OCCl)CC[C@H]2[C@@H]3CCC4=CC(=O)C=C[C@]4(C)[C@H]3[C@@H](O)C[C@@]21C
Potency [1]: inconclusive [inhibitor, partial curve, poor fit]
Potency [2]: inactive
Potency [6]: inconclusive [inhibitor, single point]
